The chains are these.
B1: LINE1-mini (parent)
chain: GGCAGAGCUCAACACAGCGUGGCAAAGUGGCUGUGGCUAGACUGCC

Read counts are not given, so values of variants with three or more changes are uncertain.

The text below walks through data of the RNAGym collection of RNA variant scans (doi:10.7554/elife.90254).

In the data set the parent is B1. Put plainly: self-cleavage, relative activity (ratio to wild type); higher = more cleavage; in vitro, sequencing; the parent is a self-cleaving ribozyme.
On to C31U A39U C45A, for which the self-cleavage was 0.02.

Take G1U C3A G5U U32G U38G C42A: the self-cleavage was determined as 0.19.

Regarding G5U C15A G17C, the self-cleavage stood at 0.01.

With A16G A41U G44C, the self-cleavage came out at 0.03.

With C8U C13G A14C C46A, the self-cleavage stood at 0.17.

On to A6C A14U C31A G44C, for which the self-cleavage came out at 0.07.

As for G1C C10U A12C G21A G30U C45U, the self-cleavage was found to be 0.

Regarding G5U A6U A11G A12C C31G G33U G44U C45A, the self-cleavage is 0.

For the variant G17U G22A A24U, the self-cleavage amounted to 0.06.

As for G2C G21A A24C, the self-cleavage is 0.15.

Regarding G27A U28G C31A G35U A41U, the self-cleavage worked out at 0.04.

Take A14C G21A G22U C23A: the self-cleavage was determined as 0.03.

Regarding A12U U28G C37U, the self-cleavage was determined as 0.01.

Consider A4G C42A C45A, for which the self-cleavage stood at 0.08.

Take C15U C18G A24G C31A C42U: the self-cleavage turned out to be 0.02.

As for A12G G30U G33C U34G, the self-cleavage came out at 0.02.

Take A14G C42A C45A: the self-cleavage was determined as 0.02.

Regarding C10U U28G C31G C42U, the self-cleavage came to 0.05.

Take U9G A11U G21U C31A: the self-cleavage stood at 0.01.

Consider G2C U9A C18A G36A A41U, for which the self-cleavage was 0.03.

On to A6C G19A C23U U32G, for which the self-cleavage is 0.1.

Consider C13A C15A G30C U38C A41C, for which the self-cleavage stood at 0.04.

On to C15G A25G C37G, for which the self-cleavage is 0.02.

As to C10A A12C A14C A41G, the self-cleavage was 0.

On to G1C A6U U9G G30U, for which the self-cleavage worked out at 0.06.

Consider A6C G7C A11C G44U, for which the self-cleavage came to 0.02.

As to C23G G27C U28C, the self-cleavage was found to be 1.52.

For the variant A16G G21C A26U, the self-cleavage was 1.2.

G7U C13A G17A C45U: the self-cleavage was determined as 0.08.

For the variant G1C G22U U34G, the self-cleavage worked out at 0.01.

Turning to A4C A12C U34A C46A, the self-cleavage turned out to be 0.08.

Take G1C U20C C23A: the self-cleavage worked out at 0.06.

Take G5U A11C G30C G36U: the self-cleavage was 0.02.

For U9C U43C C45A, the self-cleavage came to 0.03.

On to C3A U9A G35U, for which the self-cleavage came out at 0.04.

As to C3G C8G A11U G17U U20G A24G U32G G35C, the self-cleavage is 0.01.

On to G1A U9A U28G G29U G30A, for which the self-cleavage is 1.89.

On to A12C G30U U38A, for which the self-cleavage is 0.

Regarding G1C C13U C15A A41U, the self-cleavage came to 0.09.

Consider C13A C18A C23U G35U, for which the self-cleavage was found to be 0.47.

As to G5A A6C A11G A16C, the self-cleavage is 0.01.

Turning to C8U A12C C46A, the self-cleavage was found to be 0.04.

For C8U U20C U34A C42G, the self-cleavage was found to be 0.07.

A6C C10A G29A: the self-cleavage came to 0.

Turning to A25U G27U G44C, the self-cleavage was 0.36.

In the case of C13U C37U A39U, the self-cleavage worked out at 0.08.

On to C3U G17U G22U, for which the self-cleavage worked out at 0.15.

Turning to G1U A39U C45A, the self-cleavage is 0.83.

As to A6U U9A A12U C18U G19A G35A, the self-cleavage stood at 0.06.

C15U G22C C46U: the self-cleavage worked out at 0.17.

Consider A14C C37A C45G, for which the self-cleavage turned out to be 0.07.

On to A26C U34G C37U, for which the self-cleavage turned out to be 0.07.

Turning to G5U C8G G21C C23A G36C A41G, the self-cleavage was found to be 0.01.

As for C13A A24G G36C, the self-cleavage was determined as 0.04.

As for C13U A25C U32A, the self-cleavage worked out at 0.08.

Consider C10G G33U U34A, for which the self-cleavage was 0.04.

Take G7U U43A C46A: the self-cleavage was 0.24.

As for C3A U34G G40C, the self-cleavage turned out to be 0.01.

For the variant G7U G17U A41U, the self-cleavage came out at 0.09.

For the variant G19C G27A G33U C45G, the self-cleavage was found to be 0.04.

A4U A14U G35C: the self-cleavage is 0.11.

Take A4C G29U U38C C46G: the self-cleavage turned out to be 0.3.

Consider G1A G7C C13G G35A, for which the self-cleavage turned out to be 0.16.

For A4G G22U G27U, the self-cleavage was determined as 0.08.

For the variant C8U G33A G35U, the self-cleavage was 0.15.

With G1A A12U U34C G36A G44A, the self-cleavage stood at 0.05.

Turning to G19C C42U C45U C46A, the self-cleavage came to 0.

As for G2A C10A G36C A41C C45G, the self-cleavage stood at 0.01.

On to G7U C8A A11C C15G C37U, for which the self-cleavage came out at 0.

As to G22U G35C A39U, the self-cleavage came out at 0.09.

For C8A A16U G19A U20G U32A C46A, the self-cleavage turned out to be 0.1.

For C3G C13A C15U A16C A25C, the self-cleavage came to 0.12.

Consider G2C C18A G21U U38A G40A, for which the self-cleavage stood at 0.01.

For the variant A6G C13A G44C, the self-cleavage was determined as 0.09.

As to A16C C31U U32C, the self-cleavage amounted to 0.03.

As to G5C U34C G40U, the self-cleavage stood at 0.29.

Regarding A16G G40A C45A, the self-cleavage is 0.21.

Regarding G2C G5A A25C A26C, the self-cleavage is 0.03.

On to C8U A25G C42A U43C, for which the self-cleavage was determined as 0.1.

As to G7U A11C G17A G22C, the self-cleavage came to 0.

As to G7U G27A G33C, the self-cleavage amounted to 0.13.

With C8A A11C A24U C31U, the self-cleavage was 0.02.

In the case of G5A A16U A41U C45A, the self-cleavage was 0.07.

For G1A A6C A11C G19A C45A, the self-cleavage stood at 0.06.

Regarding C8G G29C G40C C42U, the self-cleavage was found to be 0.02.

As for U9G G35A G36U C45G, the self-cleavage is 0.15.

As to A11C A12C G21C U38G, the self-cleavage was found to be 0.01.

For the variant G2U G7A G36U, the self-cleavage came to 0.05.

Consider A12G G22A G27C U28C A39G C45A C46G, for which the self-cleavage is 0.

On to A14U U28C C31U C46A, for which the self-cleavage was 0.01.

As to C3G A14G G22C, the self-cleavage is 0.18.

As to A11C U34C G36U C37A U43A C45U, the self-cleavage turned out to be 0.

For G1U C15A A24C U28C, the self-cleavage is 0.06.

On to G2U C15U C45G, for which the self-cleavage was 0.11.

Regarding A14U G35U A39C, the self-cleavage was determined as 0.

With C3A G21U A26G U38G, the self-cleavage stood at 0.17.

With C8U A12U C13G G30U C37A, the self-cleavage came out at 0.04.

Turning to A16G A25G G33C, the self-cleavage came to 0.49.

With G5C A14G G17C G27A G30U, the self-cleavage was determined as 0.06.

Turning to G7C G21A G27A G29U U34C, the self-cleavage was found to be 0.02.

C8G G22C C23G G29A G30A G33C: the self-cleavage is 0.12.

Turning to C3G G22U A25C, the self-cleavage was found to be 0.33.

For G21U U28G C37G A39U, the self-cleavage was 0.01.

For the variant A16C G19A C23A G40U, the self-cleavage was found to be 0.05.

A4U G7U C8A G17A G22C A26G U38A: the self-cleavage turned out to be 0.1.

Take G1U C3G C10A C18A G21A U43A: the self-cleavage is 0.03.

With A14U G36U G40A, the self-cleavage was determined as 0.35.

With A4G G7A C31U C42A G44C, the self-cleavage was 0.02.

A14U A25C G35A: the self-cleavage came out at 0.03.

In the case of G35A C37U C46G, the self-cleavage turned out to be 0.01.

Turning to G5A G27A A39G, the self-cleavage was 0.03.

Take A16G A25G G36U C46A: the self-cleavage is 0.03.

G2U G27C G33A G35A: the self-cleavage was determined as 0.

On to G7A A11C A25G G35U, for which the self-cleavage was determined as 0.01.

Consider C8A C15G C45A, for which the self-cleavage came out at 0.18.

As for C10A C13G G17C G22U A41U, the self-cleavage worked out at 0.02.

In the case of C10U C15A G36A, the self-cleavage was 0.04.

In the case of C10A G30C C46G, the self-cleavage was 0.07.

Consider A4U G17A C23G A26C G44C, for which the self-cleavage was determined as 0.03.

Take U20G U32G C45A: the self-cleavage is 0.05.

As for G19C G30C C42G, the self-cleavage was 0.05.

In the case of C3A A24U G29C G36C U38G C42A, the self-cleavage was 0.02.

As to G5U G7A G27U, the self-cleavage turned out to be 0.47.

C13G A14G G21A U43A: the self-cleavage was found to be 0.06.

For the variant C18A C31A A39C, the self-cleavage was 0.01.

As for A12G A16C C42G, the self-cleavage was found to be 0.28.

Regarding G1C A24C C37U, the self-cleavage turned out to be 0.01.

Consider G2A C18A G27C G44C C46U, for which the self-cleavage came out at 0.03.

As for C3G C10A C46G, the self-cleavage stood at 0.04.

As to G5A C37A G40U, the self-cleavage turned out to be 0.12.

For the variant G1U A4C U20A A24C U28A A39G, the self-cleavage turned out to be 0.

In the case of G5C G29C G36U, the self-cleavage turned out to be 0.03.

For G22U C31U G35U G40C C42A, the self-cleavage is 0.07.

For G1U C8U A14G G19A, the self-cleavage was determined as 0.05.

For the variant G2A G7U C18U G22A, the self-cleavage came out at 0.03.

As to C10G A24U A26C, the self-cleavage amounted to 0.14.

As to G5C G17C U43A, the self-cleavage amounted to 0.09.

Consider G1U C3A U9G C10U G19A U20C U32A, for which the self-cleavage stood at 0.07.

As for U9C U20A C46G, the self-cleavage amounted to 0.05.

Consider C3A A11C U28A G44C, for which the self-cleavage amounted to 0.01.

On to A4U A12C G19U C31G C42U, for which the self-cleavage came to 0.02.

In the case of G5A C10G G27U U28A A39G, the self-cleavage was 0.01.

As to G1A C10U C23U G44C, the self-cleavage turned out to be 0.27.

With A16C G19A G35C, the self-cleavage was 0.02.

As for C10A A26G C31U, the self-cleavage was found to be 0.

A4G G29U U43A: the self-cleavage stood at 0.03.

For the variant G1U C10A C13G A41G, the self-cleavage stood at 0.02.

As to C8U G17A C23A G27A U32C G36A, the self-cleavage was found to be 0.02.

On to C10A A25U G33A, for which the self-cleavage is 0.03.

In the case of C8A A11U G27U G30C G35U C37U C42U, the self-cleavage was 0.

On to C8A G19U G22U C46A, for which the self-cleavage came to 0.39.

As for C3A G5C C10A A14U, the self-cleavage is 0.06.

C13U G27C G40C C42U: the self-cleavage is 0.15.

On to G22U G36A C46U, for which the self-cleavage was 0.06.

With C3A A39G C45U C46U, the self-cleavage was 0.16.

U20G A41C U43A: the self-cleavage was found to be 0.

For G21A G29U U38A, the self-cleavage stood at 1.44.

For C8U C13G C18A C45G, the self-cleavage came to 0.01.

Take C3A G17U A24C U32G C42G: the self-cleavage is 0.12.

For G1C C10U A14G, the self-cleavage was found to be 0.04.

On to U9G A11G C46U, for which the self-cleavage worked out at 0.02.

Turning to C15A C23A U38A, the self-cleavage amounted to 0.15.

For the variant G5U A25C U34A, the self-cleavage is 0.

In the case of G1C G7A G27U C46G, the self-cleavage was found to be 0.02.

Regarding A4G G5C C23U A41C, the self-cleavage worked out at 0.07.

For the variant G2U A4G A6C U9G G19C A25C G30U, the self-cleavage came out at 0.12.

G7C G19C A24G C31U: the self-cleavage is 0.04.
